Source: the supplement of paper PMC10126150
Values marked as one replicate rest on one cluster of the flow cell; about a third of the high ones do not repeat.

Test system: ATP
Assay: switch fluorescence ratio, 500 uM ATP over buffer (Cy3 cluster intensity, sum of 5 cycles each) (fold (ratio)); higher = stronger signal-on switching upon ATP binding; sequences stand for … in TCGTCGGCAGCGTCAGATGTGTATAAGAGACAGTTTTTTTTTTTTTTTTTTTTTTTTT…TC
Conditions: aptamer strand: ATP DNA aptamer (quencher-CACCTGGGGGAGTATTGCGGAGGAAGG + anchor), 100 nM annealed; ATP concentration: 500 uM; one replicate
Outline: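 Per cluster, summed Cy3 intensity from the target cycles was divided by that from the buffer cycles to give the fluorescence ratio, then averaged per switch-domain sequence. Clusters outside 100-1000 RFU were excluded. The Cy3-labelled switching-strand clusters, on a modified Illumina MiSeq flow-cell, were annealed to 100 nM quencher-labelled ATP aptamer and imaged in selection buffer, then after 15 min with 500 uM ATP at 22 °C, for five cycles with NaOH stripping and re-annealing between them.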
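Note: ATP exposure 15 min at 22 °C before imaging.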

Row | Sequence | switch fluorescence ratio
1 | GGACACTTGA | 1.04
2 | CTTTGGAAAA | 1.02
3 | TAAGCATACA | 1.09
4 | TGCCGCCACG | 1.04
5 | TGCAGTTTGG | 0.966
6 | AAAAGTCTT | 0.975
7 | TGCGGGCATC | 0.987
8 | AAGTCCACAG | 1.11
9 | GCGTACCTGT | 0.994
10 | GTAATGCACA | 1.05
11 | AAACGCGGCT | 1.03
12 | GATTACATTG | 1.01
13 | CCTTGCCTTT | 1.01
14 | ACCTGACTAT | 1.15
15 | GCACTCCCGT | 1.33
16 | CGAATGCTGG | 1
17 | TGGAGCACGG | 1.06
18 | ATGGATTGCC | 1
19 | ATGATCGACT | 1.03
20 | AGCGAATT | 1.03
21 | TGCTCTGGAA | 2.44
22 | TTTGCCCTCC | 1.23
23 | CTTATATCGA | 0.972
24 | GAGTAAGGTC | 0.892
25 | TTCCGGTAGT | 1.05
26 | CTCTGACCAC | 1.42

Row | Sequence | switch fluorescence ratio
27 | GGTTTTTCAT | 0.95
28 | CTAGAGAGTG | 0.981
29 | GGTAGTGCTT | 1
30 | GCTCGGAGTA | 1
31 | GTAGTAGACG | 1.03
32 | ATACTACGGC | 1.16
33 | TGCTCCCCGC | 1.42
34 | CATGATGTTT | 0.988
35 | GGAGGGACGA | 0.985
36 | GGGGCTGCCC | 1.02
37 | TTCAGATTCT | 0.995
38 | CCCGAAGGGG | 1.01
39 | GCGATCGAA | 1.02
40 | AAGATTGTG | 0.974
41 | ATCTGCTGGA | 1.01
42 | GTTTAGGACT | 0.965
43 | GACGATGTTT | 1
44 | CCTTTTTTT | 0.973
45 | TAATTGTCTG | 1
46 | ACGCCACGCG | 1.05
47 | GCTGGTAGCT | 0.985
48 | GCGCGCG | 1.03
49 | CCGGATGCCA | 1.1
50 | CGGGGGCAAC | 1.32
51 | GGGGAAACCG | 1.08
52 | GCGGCGGCTT | 0.955

Row | Sequence | switch fluorescence ratio
53 | CGAAGTTAGG | 0.957
54 | CTTTGCTGGA | 1.05
55 | GGGTGCTAGG | 0.989
56 | CTCTGTACGT | 1.05
57 | AGCTAGCGCC | 1.02
58 | CGGTGAGTGC | 1.03
59 | TTATTAGTCC | 1.08
60 | ATCTAACATG | 0.966
61 | TTGTCCGAGA | 1.04
62 | GCGTACGTAT | 0.996
63 | AACGATTCT | 0.998
64 | ACACGGCTTA | 1.03
65 | AGTCCCTCGT | 1.04
66 | TGAATGAT | 1.01
67 | GTCGAGTAGG | 1.03
68 | CTTTTTTCGT | 1.04
69 | CTTTAAACAT | 1.03
70 | TTGCAAGCC | 1.61
71 | CGTATGGGTA | 0.987
72 | CTGATTACCT | 1.23
73 | GCTTTGTGTG | 1.01
74 | CGTCTATAAT | 1.07
75 | TAAGTAGCTA | 1
76 | CCAGCTGTCA | 0.999
77 | AGTAGAACAG | 0.965
78 | TTGAATGTAG | 0.985

Row | Sequence | switch fluorescence ratio
79 | GTAATCTTCG | 1.12
80 | TAAGATTTCA | 1.07
81 | AAGTAGACCC | 0.972
82 | GAGTGTTACG | 1.05
83 | TCGGAGTGCA | 1.03
84 | ACCAGCCCCC | 1.08
85 | TCATTTCCGA | 1.07
86 | GGTCAACGAA | 1.09
87 | GGGGCGGTTA | 1.03
88 | TGATATGTAG | 0.911
89 | CCTTTTGCGG | 1.07
90 | TCGTTCTATT | 1.04
91 | CTGATCCTAT | 1
92 | TTCTCACGGA | 1.04
93 | CTAGGAAGCG | 1.01
94 | CCATGCCAGC | 1.06
95 | CTGGTCGACA | 0.977
96 | TTTTCGGTAC | 2.61
97 | TTTACTTGGT | 1.03
98 | CGTGGTATGT | 0.963
99 | GTCATGATAT | 0.986
100 | GCGAGCAGAA | 0.987
101 | TTACACGGAT | 1.19
102 | GCCAAGCCCA | 0.968
103 | CCATTTTTAT | 0.969
104 | AGGCGGGTGT | 1.04

Row | Sequence | switch fluorescence ratio
105 | TTTGACGATA | 1.02
106 | CCATGGCTGC | 1.15
107 | ATTGCTAGC | 0.939
108 | AGTTGGGCGA | 0.956
109 | ACAGGACGG | 1.1
110 | GATGATGTGA | 0.968
111 | ACTCGTGGTA | 0.999
112 | GGGTTTGCTA | 0.989
113 | AGAGACAGCG | 0.862
114 | CTGGATTCGT | 1.01
115 | CTTGCGTGAA | 1.02
116 | CCATGACTGC | 0.982
117 | GTAGGAATT | 1
118 | AAATAAAATC | 1.11
119 | ACCGGTTT | 1.01
120 | ATGATATGG | 0.999
121 | GTCACGCCG | 1.11
122 | ACGTGACGTT | 1.08
123 | CCAAACGAAG | 0.995
124 | GGCGACATC | 1.02
125 | TTCGCGCGAG | 1.04
126 | GGGAGGTACA | 0.985
127 | GTATAGAAAG | 0.973
128 | TGGTGGCGGG | 0.977
129 | CCTACTCATA | 3.63
130 | TCTTTCAACA | 0.996

Row | Sequence | switch fluorescence ratio
131 | TTAGACCGTT | 0.992
132 | TGCGTCCGCG | 1.16
133 | ACAAACTGGG | 0.979
134 | GGTGGCGTGG | 0.946
135 | CGTGCTAGGC | 1.04
136 | TTGTGAGGAT | 0.995
137 | GGTACGAA | 1.05
138 | CGTAATCTCT | 1.07
139 | CTCCAGGGCG | 1.06
140 | CTCCGGTACG | 2.22
141 | TAGTCCTCGC | 1.09
142 | GCGGGAGGTT | 1
143 | ACGGATGAGC | 0.972
144 | AACCAGAA | 0.997
145 | CAATACCCGT | 1.05
146 | CCGTCAGGT | 1.01
147 | GCATCTTTAA | 0.967
148 | AACATCGTGC | 1
149 | GACATAGCTT | 1.03
150 | TTCACTCAGC | 1.16
151 | ATCAGGCTTG | 0.989
152 | ACGCTCTCTT | 1.03
153 | GGGGACTCTA | 1.07
154 | ACCCAATTCC | 1.17
155 | CATGTCGGT | 1.03
156 | TAGTGCTATT | 0.972

Row | Sequence | switch fluorescence ratio
157 | TTGTCTATAC | 1.56
158 | CACCAGAAGA | 1.07
159 | GGGCGTCCGG | 0.947
160 | ATGTCATC | 1
161 | AGTTTCACCT | 1.09
162 | TCTGTGAGGA | 1.02
163 | TTATTCAG | 1.03
164 | AAACTTGAGA | 1.01
165 | AAGTCTGCTA | 1.01
166 | TTACTCTCGG | 0.998
167 | TCCTGTTTTG | 1.03
168 | CTGGCAGACA | 0.993
169 | TTGCAGTGAA | 0.988
170 | TCGGCGTTAT | 0.958
171 | ACTATAGAAA | 0.988
172 | GGCGTTGGAG | 1.01
173 | CGGCGATTTC | 1.14
174 | TGAGTGCCCT | 1
175 | TCAAGGTCGA | 1.04
176 | AATGACATTT | 1.01
177 | GTTTAGTCGT | 0.967
178 | TGCGCTTTAG | 0.961
179 | TAGCACATG | 1.02
180 | AAGAAGGACC | 1.05
181 | GGGGCGTAG | 0.929
182 | ACCGGGGAAA | 0.956

Row | Sequence | switch fluorescence ratio
183 | GTACCTAAAA | 0.941
184 | TATGCTATTG | 1.02
185 | CCGGGGCGGG | 1.16
186 | CCCCCGGATG | 3.76
187 | TATATTGAGC | 1.01
188 | GGAATCCACC | 1.04
189 | GTAGTTTCCT | 1.06
190 | CCGGGAGCTG | 1.15
191 | AACGAT | 1.02
192 | CCAAATTCTG | 0.936
193 | GTTCACAGGG | 1.02
194 | CGTTGCGTCG | 1.01
195 | ACTAAAGTTC | 1.02
196 | TCCGTTCATT | 1.01
197 | CACTAGTGT | 0.991
198 | ATCTGATGG | 1.1
199 | TTGTTATGGG | 1.09
200 | GATCAGGGTG | 1.08
201 | TACAGCAACA | 1.14
